Laboratory results taken from US4652566A, “Benzofuran derivatives, processes for preparing the same and antihypertensive agents containing the same” (Kaken Pharmaceutical Co., Ltd., priority 1984, dated 1987).
Counter-ions that a name gives are not always drawn. At least one compound was matched to its structure with a doubt left.

target: T1, α-adrenergic blockade (vas deferens specimen, contraction by noradrenalin) (Rattus norvegicus, UniProt P43140); assay: α-Adrenergic blockade effect (contraction response by noradrenalin of vas deferens specimen, Magnus method); design: species or system Wister male rat; conditions: not given
T1 construct: from tissue; host or cells: vas deferens of six-week-old male Wistar rat
T1 sequence (P43140 1-466): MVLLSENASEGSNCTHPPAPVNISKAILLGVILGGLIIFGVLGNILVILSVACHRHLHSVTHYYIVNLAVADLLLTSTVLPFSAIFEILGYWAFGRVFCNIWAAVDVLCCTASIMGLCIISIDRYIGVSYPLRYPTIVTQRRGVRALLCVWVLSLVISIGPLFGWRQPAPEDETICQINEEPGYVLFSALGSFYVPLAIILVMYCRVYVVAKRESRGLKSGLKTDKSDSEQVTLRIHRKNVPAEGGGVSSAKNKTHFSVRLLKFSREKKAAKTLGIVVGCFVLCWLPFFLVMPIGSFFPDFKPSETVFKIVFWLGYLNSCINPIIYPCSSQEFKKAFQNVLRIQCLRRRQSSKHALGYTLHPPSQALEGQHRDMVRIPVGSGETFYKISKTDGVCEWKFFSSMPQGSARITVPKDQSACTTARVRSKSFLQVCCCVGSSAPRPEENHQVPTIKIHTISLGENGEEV

| Compound | α-Adrenergic blockade effect, relative ratio as compared with Phentolamine |
| --- | --- |
| COc1ccccc1N1CCN(CC(O)COc2cccc3cc(C(N)=O)oc23)CC1 (stereo not drawn) [Ex. 9, 2-carbamoyl-7-{2-hydroxy-3-[4-(2-methoxyphenyl)-piperazinyl]propoxy}benzofuran] | 5.8 |
| COc1ccccc1N1CCN(CC(O)COc2cccc3cc(C#N)oc23)CC1 (stereo not drawn) [Ex. 16 (HCl salt), 2-cyano-7-{2-hydroxy-3-[4-(2-methoxyphenyl)piperazinyl]-propoxy} benzofuran] | 3.7 |
| Cc1ccccc1N1CCN(CC(O)COc2ccc3cc(C(N)=O)oc3c2)CC1 (stereo not drawn) [Ex. 14, 2-carbamoyl-6-{2-hydroxy-3-[4-(2-methylphenyl)piperazinyl]-propoxy}benzofuran] | 1.4 |
| Cc1ccccc1N1CCN(CC(O)COc2cccc3cc(C(C)O)oc23)CC1 (stereo not drawn) [Ex. 23, 2-(1-hydroxyethyl)-7-{2-hydroxy-3-[4-(2-methylphenyl)piperazinyl]propoxy}benzofuran] | 2.0 |
| CCOC(=O)c1cc2cccc(OCC(O)CN3CCN(c4ccccc4OC)CC3)c2o1 (stereo not drawn) [Ex. 18 (HCl salt), 2-ethoxycarbonyl-7-{2-hydroxy-3-[4-(2-methoxyphenyl)-piperazinyl]propoxy}benzofuran] | 2.1 |
| COc1ccccc1N1CCN(CC(O)COc2cccc3cc(C(C)=O)oc23)CC1 (stereo not drawn) [Ex. 2 (HCl salt), 2-acetyl-7-{2-hydroxy-3-[4-(2-methoxyphenyl)piperazinyl]-propoxy}benzofuran] | 4.1 |
| CC(=O)c1cc2cccc(OCC(O)CN3CCN(c4ccccc4C)CC3)c2o1 (stereo not drawn) [Ex. 6 (HCl salt), 2-acetyl-7-{2-hydroxy-3-[4-(2-methylphenyl)-piperazinyl]propoxy}benzofuran] | 3.6 |
| COc1ccccc1N1CCN(CC(O)COc2cccc3cc(C(C)O)oc23)CC1 (stereo not drawn) [Ex. 22, 2-(1-hydroxyethyl)-7-{2-hydroxy-3-[4-(2-methoxyphenyl)piperazinyl]propoxy}benzofuran] | 3.2 |
| COc1ccccc1N1CCN(CC(O)COc2ccc3cc(C(N)=O)oc3c2)CC1 (stereo not drawn) [Ex. 11, 2-carbamoyl-6-{2-hydroxy-3-[4-(2-methoxyphenyl)piperazinyl]propoxy}benzofuran] | 2.8 |
| COc1ccccc1N1CCN(CC(O)COc2ccc3cc(C(C)=O)oc3c2)CC1 (stereo not drawn) [Ex. 4 (HCl salt), 2-acetyl-6-{2-hydroxy-3-[4-(2-methoxyphenyl)piperazinyl]-propoxy}benzofuran] | 7.1 |

target: T2, calcium antagonism (thoracic aorta spiral specimen, contraction by calcium) (Cavia porcellus, UniProt O35505); assay: Calcium antagonistic effect (contraction response by calcium of spiral thoracic aorta specimen, Magnus method); design: species or system Hartly male giunea pig; conditions: guinea pig thoracic aorta; Diltiazem = 1.0
T2 construct: from tissue; host or cells: thoracic aorta spiral strip of male Hartley guinea pig
T2 sequence (O35505 whole entry): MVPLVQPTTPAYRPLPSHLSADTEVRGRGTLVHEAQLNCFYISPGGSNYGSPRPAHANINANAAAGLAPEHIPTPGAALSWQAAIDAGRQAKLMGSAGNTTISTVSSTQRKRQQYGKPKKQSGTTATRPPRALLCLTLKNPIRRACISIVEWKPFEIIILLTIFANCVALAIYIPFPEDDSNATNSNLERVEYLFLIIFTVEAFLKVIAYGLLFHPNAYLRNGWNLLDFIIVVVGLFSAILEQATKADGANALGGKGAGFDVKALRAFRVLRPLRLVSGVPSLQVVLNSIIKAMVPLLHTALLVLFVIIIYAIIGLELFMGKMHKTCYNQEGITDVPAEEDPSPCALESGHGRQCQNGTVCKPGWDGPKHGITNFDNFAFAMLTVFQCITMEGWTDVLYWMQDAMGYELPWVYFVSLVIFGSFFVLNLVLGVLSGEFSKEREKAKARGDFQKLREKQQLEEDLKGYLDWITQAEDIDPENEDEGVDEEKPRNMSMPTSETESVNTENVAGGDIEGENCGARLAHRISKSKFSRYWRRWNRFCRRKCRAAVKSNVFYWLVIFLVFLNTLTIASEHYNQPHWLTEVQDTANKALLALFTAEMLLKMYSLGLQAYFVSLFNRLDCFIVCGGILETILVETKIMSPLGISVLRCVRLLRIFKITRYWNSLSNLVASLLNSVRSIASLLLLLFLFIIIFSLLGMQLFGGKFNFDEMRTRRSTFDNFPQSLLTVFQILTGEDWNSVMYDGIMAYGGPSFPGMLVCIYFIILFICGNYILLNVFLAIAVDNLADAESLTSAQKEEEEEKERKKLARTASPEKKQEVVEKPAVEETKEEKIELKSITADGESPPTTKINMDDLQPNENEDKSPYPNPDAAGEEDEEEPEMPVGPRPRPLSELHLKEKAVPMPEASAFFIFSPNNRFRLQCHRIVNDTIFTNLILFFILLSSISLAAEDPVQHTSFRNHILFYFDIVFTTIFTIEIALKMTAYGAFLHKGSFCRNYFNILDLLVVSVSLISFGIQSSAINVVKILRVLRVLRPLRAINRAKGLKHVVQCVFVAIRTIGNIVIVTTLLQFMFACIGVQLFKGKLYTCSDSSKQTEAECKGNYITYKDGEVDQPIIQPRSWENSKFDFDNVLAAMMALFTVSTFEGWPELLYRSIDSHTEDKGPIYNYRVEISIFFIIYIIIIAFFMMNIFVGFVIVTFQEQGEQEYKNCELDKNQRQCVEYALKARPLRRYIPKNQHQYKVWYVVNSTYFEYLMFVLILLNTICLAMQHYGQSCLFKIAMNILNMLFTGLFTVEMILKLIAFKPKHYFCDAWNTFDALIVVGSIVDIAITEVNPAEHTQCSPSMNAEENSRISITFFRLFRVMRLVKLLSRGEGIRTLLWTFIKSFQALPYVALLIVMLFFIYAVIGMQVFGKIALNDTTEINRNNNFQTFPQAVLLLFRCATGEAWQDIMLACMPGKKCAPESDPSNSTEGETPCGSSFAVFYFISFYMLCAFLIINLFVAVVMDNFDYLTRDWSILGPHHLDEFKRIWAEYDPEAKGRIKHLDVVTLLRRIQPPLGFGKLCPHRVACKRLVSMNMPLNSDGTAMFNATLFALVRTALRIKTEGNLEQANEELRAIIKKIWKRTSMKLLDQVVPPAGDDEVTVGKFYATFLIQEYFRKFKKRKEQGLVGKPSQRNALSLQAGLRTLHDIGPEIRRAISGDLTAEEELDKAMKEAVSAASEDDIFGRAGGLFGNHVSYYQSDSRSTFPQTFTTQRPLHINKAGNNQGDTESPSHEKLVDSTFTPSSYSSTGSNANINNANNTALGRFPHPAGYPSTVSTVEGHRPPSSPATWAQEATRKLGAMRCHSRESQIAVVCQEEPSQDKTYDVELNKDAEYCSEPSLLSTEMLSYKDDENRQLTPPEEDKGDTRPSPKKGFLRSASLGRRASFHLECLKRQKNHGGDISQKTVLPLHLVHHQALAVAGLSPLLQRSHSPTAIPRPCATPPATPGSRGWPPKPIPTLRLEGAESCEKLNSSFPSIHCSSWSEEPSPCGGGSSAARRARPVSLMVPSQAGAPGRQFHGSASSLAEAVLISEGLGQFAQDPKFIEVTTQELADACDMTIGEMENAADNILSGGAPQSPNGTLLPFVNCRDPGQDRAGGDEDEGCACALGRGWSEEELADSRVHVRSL
Procedure: [Calcium antagonistic effect]
Using a spiral blood vessel specimen taken from a thoracic aorta of Hartly male giunea pig weighed 400 to 600 g, a contraction response by calcium was measured as a dose-response curve according to Magnus method and the antagonistic activity for each test compound was indicated as above-mentioned pA2 value.

| Compound | Calcium antagonistic effect, relative ratio as compared with Diltiazem |
| --- | --- |
| CC(=O)c1cc2cccc(OCC(O)CN3CCN(c4cccc(Cl)c4)CC3)c2o1 (stereo not drawn) [Ex. 8 (HCl salt), 2-acetyl-7-{3-[4-(3-chlorophenyl)piperazinyl]-2-hydroxypropoxy}benzofuran] | 1.1 |
| Cc1ccccc1N1CCN(CC(O)COc2ccc3cc(C(N)=O)oc3c2)CC1 (stereo not drawn) [Ex. 14, 2-carbamoyl-6-{2-hydroxy-3-[4-(2-methylphenyl)piperazinyl]-propoxy}benzofuran] | 1/2 |
